Experimental data taken from ChEMBL document CHEMBL1201862, “PubChem BioAssay data set” (2004).
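A five-concentration, 48-hour dose response in 96-well plates underlies each endpoint, interpolated linearly between surrounding concentrations. Here, GI50 denotes the concentration required for 50% inhibition of growth.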 The source made the active and inactive calls. Cut-off read from the data, not from the text of the source: active = GI50 up to about 1.1 µM and inactive = higher.

Experiments:
Assay in all cases: inhibition of tumour cell growth, NCI panel, 48 h
786-0 = tested on: 786-0
A498 = tested on: A498
A549 = tested on: A549
ACHN = tested on: ACHN
BT-549 = tested on: BT-549
CAKI-1 = tested on: CAKI-1
CCRF-CEM = tested on: CCRF-CEM
COLO 205 = tested on: COLO 205
DLD-1 = tested on: DLD-1
DMS-114 = tested on: DMS-114
DMS-273 = tested on: DMS-273
DU-145 = tested on: DU-145
HCC 2998 = tested on: HCC 2998
HCT-116 = tested on: HCT-116
HCT-15 = tested on: HCT-15
HL-60 = tested on: HL-60
HOP-18 = tested on: HOP-18
HOP-62 = tested on: HOP-62
HOP-92 = tested on: HOP-92
HT-29 = tested on: HT-29
Hs-578T = tested on: Hs-578T
IGROV-1 = tested on: IGROV-1
K562 = tested on: K562
KM-20L2 = tested on: KM-20L2
KM12 = tested on: KM12
LOX IMVI = tested on: LOX IMVI
LXFL 529 = tested on: LXFL 529
M14 = tested on: M14
M19-MEL = tested on: M19-MEL
MCF7 = tested on: MCF7
MDA-MB-231 = tested on: MDA-MB-231
MDA-MB-435 = tested on: MDA-MB-435
MDA-N = tested on: MDA-N
MOLT-4 = tested on: MOLT-4
Malme-3M = tested on: Malme-3M
NCI-H226 = tested on: NCI-H226
NCI-H23 = tested on: NCI-H23
NCI-H460 = tested on: NCI-H460
NCI-H522 = tested on: NCI-H522
NCI/ADR-RES = tested on: NCI/ADR-RES
OVCAR-3 = tested on: OVCAR-3
OVCAR-4 = tested on: OVCAR-4
OVCAR-5 = tested on: OVCAR-5
OVCAR-8 = tested on: OVCAR-8
PC-3 = tested on: PC-3
RPMI-8226 = tested on: RPMI-8226
RXF 393 = tested on: RXF 393
RXF 631 = tested on: RXF 631
SF-268 = tested on: SF-268
SF-295 = tested on: SF-295
SF-539 = tested on: SF-539
SK-MEL-2 = tested on: SK-MEL-2
SK-MEL-5 = tested on: SK-MEL-5
SK-OV-3 = tested on: SK-OV-3
SN12C = tested on: SN12C
SNB-19 = tested on: SNB-19
SNB-75 = tested on: SNB-75
SNB-78 = tested on: SNB-78
SR = tested on: SR
SW-620 = tested on: SW-620
T47D = tested on: T47D
TK-10 = tested on: TK-10
U-251 = tested on: U-251
UACC-257 = tested on: UACC-257
UACC-62 = tested on: UACC-62
UO-31 = tested on: UO-31

Measured: GI50

COc1cc2c(c(OC)c1OC)-c1ccc(SC)c(=O)cc1[C@@H](N)CC2
inactive: HOP-18 = > 100000 nM | OVCAR-4 = 5650 nM | T47D > 100000 nM
active: 786-0 = 18.9 nM | A498 = 10.8 nM | A549 = 18 nM | ACHN 16.3 nM | BT-549 = 29.1 nM | CAKI-1 = 21.2 nM | CCRF-CEM 151 nM | COLO 205 = 13 nM | DLD-1 = < 10 nM | DMS-114 = < 10 nM | DMS-273 = < 10 nM | DU-145 = 22.4 nM | HCC 2998 = 16.9 nM | HCT-116 = 15.4 nM | HL-60 = 20.5 nM | HOP-62 = < 10 nM | HOP-92 = 22.2 nM | HT-29 = 15 nM | Hs-578T 15.8 nM | IGROV-1 = 18.6 nM | K562 = 133 nM | KM-20L2 = < 10 nM | KM12 = 13.6 nM | LOX IMVI 18.9 nM | LXFL 529 = < 10 nM | M14 = 14.5 nM | M19-MEL < 10 nM | MCF7 = 349 nM | MDA-MB-231 = 662 nM | MDA-MB-435 = < 10 nM | MDA-N < 10 nM | MOLT-4 = 16.4 nM | Malme-3M 20.8 nM | NCI-H226 = 186 nM | NCI-H23 = 23.7 nM | NCI-H460 = 16.4 nM | NCI-H522 = 14.6 nM | NCI/ADR-RES 58.9 nM | OVCAR-3 = 12.9 nM | OVCAR-5 = 153 nM | OVCAR-8 = 16.8 nM | PC-3 = 15.5 nM | RPMI-8226 = 15.2 nM | RXF 393 = 12.3 nM | RXF 631 = < 10 nM | SF-268 = 26.6 nM | SF-295 = 15.5 nM | SF-539 = 14.3 nM | SK-MEL-2 = 22.1 nM | SK-MEL-5 = 14.9 nM | SK-OV-3 = 16 nM | SN12C 18.3 nM | SNB-19 = 15.3 nM | SNB-75 = 93.1 nM | SNB-78 = < 10 nM | SR 196 nM | SW-620 = 17.5 nM | TK-10 = 25 nM | U-251 = 16.6 nM | UACC-257 = 239 nM | UACC-62 = 13.6 nM | UO-31 = 31.3 nM
13.1 nM: HCT-15
